Laboratory results as given in publication PMC5700166.
Only a part is listed here, and it is no random draw. The list includes weakly bound sequences.

Key:
Assay in all cases: protein-binding microarray (PBM)
Conditions in all cases: PBM: ~300 nM protein, 6 mM HEPES pH 7.8, 80 mM KCl, 0.5 mM EDTA, 0.5 mM EGTA, 6% glycerol, 35 ng/ul poly-dIdC, 1% milk, 1 h, room temperature; Ap Aiptasia and Nv Nematostella (sea anemones) / Co Capsaspora / Aq Amphimedon (sponge) / Dm Drosophila / Hu human; RHD is the Rel homology domain; high values mean tight binding; most listed sequences are background and not binding sites; double strand, one strand shown
GST-Ap-NF-kB RHD = target: T1, GST-Ap-NF-kB RHD (UniProt A0A913YAJ5)
T1 sequence: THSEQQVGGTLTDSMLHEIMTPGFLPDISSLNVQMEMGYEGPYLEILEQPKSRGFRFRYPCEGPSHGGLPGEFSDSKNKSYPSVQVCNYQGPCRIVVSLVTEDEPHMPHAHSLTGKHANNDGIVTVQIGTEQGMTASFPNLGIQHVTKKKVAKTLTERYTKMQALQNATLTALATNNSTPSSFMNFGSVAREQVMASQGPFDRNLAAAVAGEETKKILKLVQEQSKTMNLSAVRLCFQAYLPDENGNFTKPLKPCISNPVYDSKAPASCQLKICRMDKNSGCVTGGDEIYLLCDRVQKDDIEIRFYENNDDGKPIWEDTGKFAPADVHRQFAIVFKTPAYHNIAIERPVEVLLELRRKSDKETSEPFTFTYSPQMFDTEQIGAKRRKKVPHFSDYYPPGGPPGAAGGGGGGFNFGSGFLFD

[1] = target: T2, GST-Nv-NF-kB (Cys allele) (UniProt E5G601)
T2 sequence: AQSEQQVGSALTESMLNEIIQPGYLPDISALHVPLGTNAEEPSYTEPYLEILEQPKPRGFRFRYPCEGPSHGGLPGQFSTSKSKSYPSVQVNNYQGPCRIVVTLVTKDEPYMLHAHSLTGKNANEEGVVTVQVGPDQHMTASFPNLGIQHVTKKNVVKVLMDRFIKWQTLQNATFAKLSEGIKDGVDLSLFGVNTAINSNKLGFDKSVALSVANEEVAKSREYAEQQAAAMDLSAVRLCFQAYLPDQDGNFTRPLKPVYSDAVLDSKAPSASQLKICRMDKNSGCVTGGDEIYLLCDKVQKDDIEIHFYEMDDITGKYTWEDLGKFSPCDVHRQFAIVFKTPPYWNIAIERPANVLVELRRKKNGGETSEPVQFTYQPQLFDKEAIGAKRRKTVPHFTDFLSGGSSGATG

GST-Co-NF-kB = target: T3, GST-Co-NF-kB (UniProt F1ARL5)
T3 sequence: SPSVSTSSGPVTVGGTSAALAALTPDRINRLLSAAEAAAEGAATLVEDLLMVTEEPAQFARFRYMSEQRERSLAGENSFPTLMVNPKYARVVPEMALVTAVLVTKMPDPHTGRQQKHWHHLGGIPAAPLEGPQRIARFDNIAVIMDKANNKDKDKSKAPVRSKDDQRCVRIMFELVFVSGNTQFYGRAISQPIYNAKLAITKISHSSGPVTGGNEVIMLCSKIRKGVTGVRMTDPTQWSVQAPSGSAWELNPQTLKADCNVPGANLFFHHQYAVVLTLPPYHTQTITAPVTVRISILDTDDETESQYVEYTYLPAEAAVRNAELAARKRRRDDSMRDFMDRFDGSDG

GST-Dm-Relish = target: T4, GST-Dm-Relish (UniProt Q94527)
T4 sequence: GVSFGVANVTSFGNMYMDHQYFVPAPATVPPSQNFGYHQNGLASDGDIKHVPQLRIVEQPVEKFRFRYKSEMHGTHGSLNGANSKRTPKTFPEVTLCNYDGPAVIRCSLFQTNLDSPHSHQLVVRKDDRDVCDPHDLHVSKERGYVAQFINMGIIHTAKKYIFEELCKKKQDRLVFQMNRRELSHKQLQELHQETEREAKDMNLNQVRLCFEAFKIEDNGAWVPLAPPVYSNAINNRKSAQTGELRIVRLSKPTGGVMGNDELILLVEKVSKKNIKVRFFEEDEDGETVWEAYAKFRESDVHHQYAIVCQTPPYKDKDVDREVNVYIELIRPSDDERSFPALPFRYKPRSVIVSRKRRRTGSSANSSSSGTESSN

GST-Aq-NF-kB = target: T5, GST-Aq-NF-kB (UniProt A9Y5G7)
T5 sequence: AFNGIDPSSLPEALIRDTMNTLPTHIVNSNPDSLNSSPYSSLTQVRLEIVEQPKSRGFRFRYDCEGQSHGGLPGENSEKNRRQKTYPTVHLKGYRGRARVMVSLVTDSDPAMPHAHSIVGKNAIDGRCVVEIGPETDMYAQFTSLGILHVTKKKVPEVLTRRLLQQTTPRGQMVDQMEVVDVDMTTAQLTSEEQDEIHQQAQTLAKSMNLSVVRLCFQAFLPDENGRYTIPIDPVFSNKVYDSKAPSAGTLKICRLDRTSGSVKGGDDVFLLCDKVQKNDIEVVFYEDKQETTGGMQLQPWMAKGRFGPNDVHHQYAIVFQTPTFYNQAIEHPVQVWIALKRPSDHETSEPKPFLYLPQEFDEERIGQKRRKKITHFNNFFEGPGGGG

Row | Sequence | binding signal (GST-Ap-NF-kB RHD) | binding signal [1] | binding signal (GST-Co-NF-kB) | binding signal (GST-Dm-Relish) | binding signal (GST-Aq-NF-kB)
1 | CCGATTAACATCAAGCGAAAGAATGATGTTAATCGGGTCTTGATTCGCTTGACGCTGCTG | -0.112 z-score | 0.526 z-score | -0.607 z-score | -0.123 z-score | -0.123 z-score
2 | CCGATTAACATCAACTGCCAAGATGATGTTAATCGGGTCTTGATTCGCTTGACGCTGCTG | -0.317 z-score | -0.158 z-score | -0.567 z-score | -1.19 z-score | -0.452 z-score
3 | CCGATTAACATCACCTGGAGCGATGATGTTAATCGGGTCTTGATTCGCTTGACGCTGCTG | 0.282 z-score | 0.374 z-score | -0.278 z-score | 0.232 z-score | 0.225 z-score
4 | CCGATTAACATCAAGGAAAATTCTGATGTTAATCGGGTCTTGATTCGCTTGACGCTGCTG | -0.0353 z-score | -0.0354 z-score | 0.817 z-score | 0.286 z-score | 0.92 z-score
5 | CCGATTAACATCACAGTCATTGTTGATGTTAATCGGGTCTTGATTCGCTTGACGCTGCTG | -0.324 z-score | -0.0223 z-score | 0.0536 z-score | 0.0138 z-score | -0.589 z-score
6 | CCGATTAACATCAGTATGCCAACTGATGTTAATCGGGTCTTGATTCGCTTGACGCTGCTG | -0.881 z-score | -0.129 z-score | -0.00177 z-score | -0.325 z-score | -0.52 z-score
7 | CCGATTAACATCACTCACGGAACTGATGTTAATCGGGTCTTGATTCGCTTGACGCTGCTG | -0.363 z-score | -0.0571 z-score | 0.519 z-score | -0.0586 z-score | -0.203 z-score
8 | CCGATTAACATCATAGAGACACGTGATGTTAATCGGGTCTTGATTCGCTTGACGCTGCTG | -0.367 z-score | -0.329 z-score | 0.185 z-score | -0.623 z-score | -0.25 z-score
9 | CCGATTAACATCAATGAGCTCTTTGATGTTAATCGGGTCTTGATTCGCTTGACGCTGCTG | -0.76 z-score | 0.173 z-score | -0.807 z-score | -1.31 z-score | -0.605 z-score
10 | CCGATTAACATCAGGTTCATTGTTGATGTTAATCGGGTCTTGATTCGCTTGACGCTGCTG | -0.0206 z-score | -0.537 z-score | -0.717 z-score | -0.422 z-score | -0.0348 z-score
11 | CCGATTAACATCAGGAATATTTATGATGTTAATCGGGTCTTGATTCGCTTGACGCTGCTG | 0.166 z-score | -0.683 z-score | 0.11 z-score | 0.294 z-score | 0.306 z-score
12 | CCGATTAACATCACGCACGGACATGATGTTAATCGGGTCTTGATTCGCTTGACGCTGCTG | 0.0642 z-score | -0.523 z-score | -1.07 z-score | -0.252 z-score | -0.34 z-score
13 | CCGATTAACATCAATGTCGGCCGTGATGTTAATCGGGTCTTGATTCGCTTGACGCTGCTG | 0.191 z-score | -0.141 z-score | -0.704 z-score | -0.234 z-score | -0.336 z-score
